Over roughly 33,000 sequences, “E-score (-0.5 to 0.5)” has its median near -0.016; the highest 2% begin near 0.32. This is one part of the list.
Each sequence was assayed against T1, Stp1 (UniProt B3LFK1) (assay: PBM E-score (8-mer binding enrichment) (E-score (-0.5 to 0.5)); higher = stronger / more preferred TF binding; most listed sequences are background and not binding sites). Conditions: protein concentration: 200 nM; construct: GST-full length.
T1 sequence: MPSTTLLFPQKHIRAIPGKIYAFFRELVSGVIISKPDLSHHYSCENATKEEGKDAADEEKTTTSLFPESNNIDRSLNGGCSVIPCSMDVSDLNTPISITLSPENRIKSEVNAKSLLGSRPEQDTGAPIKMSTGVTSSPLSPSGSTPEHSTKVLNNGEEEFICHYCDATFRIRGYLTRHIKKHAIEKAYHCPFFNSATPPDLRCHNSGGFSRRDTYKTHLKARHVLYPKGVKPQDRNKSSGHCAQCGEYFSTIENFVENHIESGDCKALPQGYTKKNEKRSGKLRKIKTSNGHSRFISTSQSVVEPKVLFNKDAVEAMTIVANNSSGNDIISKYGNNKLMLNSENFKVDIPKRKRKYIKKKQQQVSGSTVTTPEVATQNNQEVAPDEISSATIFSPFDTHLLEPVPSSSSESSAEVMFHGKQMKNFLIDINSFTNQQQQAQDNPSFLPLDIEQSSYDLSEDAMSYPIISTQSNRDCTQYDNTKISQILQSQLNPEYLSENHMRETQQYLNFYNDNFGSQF
Procedure, shortened: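 For each ungapped eight-base word taken together with its reverse complement, the Universal PBM Analysis Suite assigned an E-score. Binding data came from GST-tagged yeast transcription factors, applied at about 100-200 nM, on universal all-10-mer Agilent arrays made double-stranded by primer extension. Fluorescent anti-GST marked bound protein, and scans were normalised with masliner.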

Sequence	PBM E-score
GTGACAAA	-0.00152
AGCAGGGG	-0.405
ATGGTGCC	0.372
ACCAACGG	0.173
AGCGGTTG	-0.0874
CGGCAGAC	0.0714
AGACTTAT	-0.25
GCACCCGA	-0.0949
AAATAATA	0.226
AACGTGCT	-0.16
AGTATGCG	-0.00159
CCCCGCCA	-0.00909
AGGCGTCG	0.253
CAGTTATG	-0.0302
GAACTCAA	-0.254
CTGTGCTC	0.0867
CACAGTCC	-0.0372
AATTTTGT	0.0756
AGCACGAC	-0.156
ATCCTGGC	-0.109
AATTCAGC	-0.101
AGCGGCTG	0.0689
GAAAGGGA	-0.0802
GCACTAAC	0.042
GTGTCCAA	0.0717

Sequence	PBM E-score
GTAATTAC	0.17
ACCGTAGC	-0.138
CGTGCGGC	0.476
CAGAAGCG	0.106
GTTTTAAA	0.214
GCGGGTGA	0.0492
GGAGAATA	0.0992
GCCGCAGC	0.394
ACCTCATG	-0.208
ACGCTGGA	-0.0566
CTGTTATC	-0.0264
CCACGACA	-0.158
CAGGGAGG	-0.281
CGTCAACC	-0.141
GATATTTA	0.169
TAGTTGCA	-0.0873
ACCGCGCA	0.0261
GAACGAGA	-0.168
GTTGGCCA	-0.15
ACGGACGC	0.0689
CAACGCGA	0.0203
GAGACAGA	-0.0347
ATTCGGTC	0.00925
AAACGTCA	-0.167
CCACTACG	0.021

Sequence	PBM E-score
GGTGGGCA	-0.064
TTTACAAA	0.167
AGATGGTG	-0.0974
ATTGAAAT	0.123
ATTGCAGG	-0.0572
AGTATCAA	0.211
CCGCTTCG	0.0727
CGGTTGGA	-0.0808
AACAAGCA	-0.0118
CCGGCGCG	0.298
ATCATCAG	0.05
TATGTAAA	0.242
ACAGGTAT	-0.0623
AGAAGATG	-0.169
ACCACTCC	-0.105
CTACAGTC	-0.181
GTGCGAAC	-0.00318
AGCCTTTA	-0.091
ATCGCGGA	-0.192
TACGACAA	0.147
CGCGTACC	0.108
CCTTTATA	-0.11
CCCCGTGC	0.316
ACATAACG	0.0215
ACGATAGA	-0.141

Sequence	PBM E-score
ACGCACGT	0.0412
GACGCGAA	-0.149
AAAAGAAT	0.322
CCATGTTC	0.103
AGATCCGG	-0.113
CCCGCCGC	0.332
TGAAAGAA	0.211
GTTTGACA	0.0456
CTGCAGTA	-0.158
TCTAAAAA	0.0976
ACCTTTTC	0.0279
ATTTGCGA	0.174
CCTCCACG	-0.0808
CATCACCA	-0.0538
AAGGGGAG	-0.266
CGGGTAGA	-0.186
AAACAAAT	0.159
GCAAAACC	-0.0726
CTGAAACC	0.0334
AATCACAG	-0.147
CAATTACG	0.0559
GACTATAA	0.112
ACTGATCC	-0.0501
AACCACCC	-0.136
ATTTTGAC	0.161

Sequence	PBM E-score
GCCCAGCC	-0.00405
AAAACGGT	-0.0136
CTACCGAC	0.00731
CGTCCCGA	-0.0925
ACACGTAT	0.13
CAGAACGG	0.119
CCCTAGAA	-0.0371
TACGCGGA	0.103
ACGCCGCG	0.473
AATAGCCC	-0.162
ATTGGTTA	0.0929
CGGAAATA	0.169
AACTGCTT	-0.0831
ATGCTGGC	-0.137
ACGATCAC	-0.0583
CGAAATTC	0.0652
AAGTACCT	-0.144
GGTTGCAA	0.0623
CCCGAACA	-0.0755
AGAATGTA	0.173
ATGGACAC	0.0252
CTGCTTTC	-0.0352
AAGTAAAT	0.181
GCATATGC	0.0115
ACGCCGGC	0.168

Sequence	PBM E-score
AGCAAGAG	-0.0538
GAGGATAA	-0.0242
ACTGAACA	0.158
AGGGCTGA	-0.172
TACACATA	0.125
AGGTAGCG	-0.105
AGCTGTGC	0.154
AAGCATGC	-0.0122
GAAAAGAA	0.0978
CAGGATGC	0.0245
ACGCGGCA	0.479
CGGTAGCA	-0.112
AGGGCCGA	0.0233
TCTGCAGA	0.0477
TCTACGAA	-0.0374
GTATTTAA	0.117
ATTTTCCC	-0.00016
GGCACACC	0.0187
CGACTAAG	-0.122
ATAGATAT	0.0773
ACAACCTG	-0.155
ATACACCA	-0.0952
AGTGGGAG	-0.167
AGTGTCGC	-0.0791
GCCTCGAC	0.0115

Sequence	PBM E-score
ACGTAAGG	0.0644
CCATACTA	-0.0681
CTCGTACC	-0.12
ATTTGATA	0.092
AGCATACT	-0.0298
AGATCTAG	-0.143
ATTCGCTC	-0.0527
CGAAGTCA	0.0593
TATTGCCA	0.049
GCGCTGGA	-0.012
AGCGTTGG	-0.127
GCTGCCCA	-0.159
AAGATGGA	-0.0599
GCTAATCA	0.141
GAGCACTA	-0.0755
ATCGCAAA	0.262
ATTCGTAC	0.117
AAGAGATA	-0.0543
AAATGTAG	0.0859
TACAATCA	0.15
ACAGCTCC	-0.0705
GATGTTCC	-0.066
ACGTCAAC	0.0286
TACTCCAA	-0.145
CTTCAGTC	-0.227

Sequence	PBM E-score
TCTTCGCA	0.167
AACGAAGG	-0.277
CGTGCTAA	0.0353
CCATTTGA	0.039
ACCCTCCC	-0.143
AATCTTGT	0.0987
GTCGCAGA	0.0742
GATCGACA	0.013
AGTCTAGA	-0.201
TCCAAGGA	-0.105
GATCAGGC	-0.132
ATTGAGTG	0.213
CCGCGGAG	0.0416
CAGACATA	0.189
CCTTCAGC	-0.211
GTCTTCAA	-0.206
ATACATCA	-0.074
ACTAGCGA	-0.0319
AAACGGCA	0.467
AATTCGCA	0.111
GGCGTAGA	0.113
CGAGCTCG	0.079
CTAACACC	-0.182
CAGAGGTA	0.062
GGATCCAC	-0.251

Sequence	PBM E-score
GATGCCGC	0.466
GGGCTCAA	0.055
CTAGAATA	0.145
ATACTCGC	-0.0916
GACACTAC	-0.135
CCCTACGG	0.0558
CGCGTAGC	0.132
GATCACGA	-0.182
CTGGGGCC	-0.253
AAACAAGT	0.0921
GCAATGGA	-0.0392
ACTACCGG	-0.257
CGCTAATA	0.13
GTTAAACA	0.114
CTGCCTCA	-0.0442
GATTAGCA	-0.0596
TCGCAACA	0.0221
ATTGACCA	-0.14
AAGTGGCA	0.216
GATGCCCC	-0.129
AGCCCCGC	0.0297
ACCACGTC	-0.261
CTCTCGTA	-0.17
AGCAGTAC	-0.00747
TGGTCACA	0.171

Sequence	PBM E-score
GGGGAACC	-0.44
AGCAACCT	-0.124
CTGACCAA	-0.0478
GCACCCCC	-0.218
ACCGTGAT	0.019
ACCGGGTG	-0.0524
ACCTGACG	-0.0576
AACAGGTG	-0.023
CCAAATCG	-0.0172
CCTCAGAC	-0.129
GGGGTACA	-0.174
ACAATACC	0.0539
GCAATTCC	0.0563
ATGTTGAG	0.0235
AACTTTGG	0.0575
ACCACATC	-0.00633
ACTGCCCG	-0.0566
TAGGCCCA	-0.239
CTCAAACA	0.15
AAAGTAGG	0.118
AGAGGCTG	-0.122
ACATGTAA	0.215
GCCTTGGA	0.202
AACTCTCT	-0.202
GTTGACTA	-0.139

Sequence	PBM E-score
ACGATAAA	0.077
ACGTCCCT	-0.115
ATATCTGC	0.023
ATATTAAT	0.158
GGCGCTTA	0.285
ATCTAGCA	0.0426
ATTGCACC	-0.0584
CCTTGATA	0.117
TAAATTAA	0.0479
ACGACAAC	0.167
ATGTGAAC	-0.0297
AGCGCTTA	-0.0828
ACCACAGA	-0.201
AAATCGTC	0.0317
AGAGCCAG	-0.231
CATCTCGG	-0.12
ATATGACG	0.0594
ACTGCTTA	-0.11
CACCATTA	0.0175
ACATACTA	0.011
CTCTAGAC	-0.202
ATGAAAAG	-0.0104
AGCCGCAT	0.452
CTAAAGAA	0.112
ACCGCGGG	0.0822

Sequence	PBM E-score
AACCACCA	-0.0463
AACGCTTC	-0.0974
CTACAGAA	0.117
CCTTTGTC	-0.0883
ATCATCGC	0.0579
GAGCTCGA	-0.0351
ATGCCCTC	0.167
AACGGCAC	0.472
CTCCGAAG	-0.198
CAGAAATA	-0.0226
GGGTTGAC	-0.116
AAAAGGAG	-0.215
GCATGCCC	-0.00699
ATCCAGTA	-0.0403
AGACGACG	-0.0138
AATTTTTG	0.191
AATCGTGG	0.0275
CCCTCACG	-0.0983
GTGATTTA	0.121
TAGGCACA	0.132
CAGAGATC	-0.131
TCCGGGAA	0.0108
CCCTTGTA	-0.178
GCTCGCAC	0.0108
TGAGGACA	-0.0366

Sequence	PBM E-score
AAGCACGG	0.295
AAGTCAAA	-0.0377
CCCACAGG	-0.271
CCGCTTAG	-0.0179
AAACATTA	-0.0139
CCTACAGC	-0.0585
CGGCCGGA	-0.15
TCTAACCA	0.0771
AACTAAAG	0.0929
AGGGAACA	-0.0555
ACTGAGAT	-0.219
TATCGAAA	0.156
CTTGTCGC	0.166
TACGCATA	0.13
CGAGCACC	-0.238
ACGACGAT	0.0785
GTATCAAC	-0.00913
CAGGATTA	0.103
ATCAAGGG	0.143
AAATATGG	0.0487
CTTGGGCC	0.0832
CCCAAGAC	-0.246
CTCTCGCA	-0.277
AACTGAAA	0.0772
AGACCTTC	-0.195

Sequence	PBM E-score
GCCCATCA	-0.14
CATCTTCA	-0.16
CAGAGATG	0.0502
CCTGACTC	-0.122
TCAATTGA	0.239
GCAAGAAC	0.16
CCAGCGCG	0.0151
CATCGGTC	-0.198
GCGATCCC	-0.172
GCGCCCGC	0.181
AATTCCAC	-0.0125
ACACTCCT	-0.13
AATGATAA	0.133
TATACGAA	0.0856
GGCCAACC	-0.134
GCGGTTGA	-0.0216
GGATTAAA	0.0606
ATTTAGTA	0.191
GGCCAGAC	-0.222

Reference: the supplement of paper PMC3334620
